# Measurements published in the supplement of paper PMC8728848.
# The other results are listed elsewhere or left out.
# Key:
# Assay in all cases: glycan array binding signal (z-score within array); higher = stronger binding
# Details in all cases: glycan notation: IUPAC condensed, linker removed
# [1] = target: Glc(a1-3)Glc(a1-3)Man(a1-2)Man(a1-2)Man(a1-3)[Man(a1-2)Man(a1-3)[Man(a1-2)Man(a1-6)]Man(a1-6)]Man(b1-4)GlcNAc(b1-4)GlcNAc
# Procedure, shortened: (§1)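 Glycan array binding is given as a within-array Z-score, which can be read as non-binding when negative. The arrays, 3228 of them, came from the Consortium for Functional Glycomics database and were retained only where the protein sequence was available. Z-scores were averaged across arrays of the same protein sequence at different concentrations or buffers and across linkers.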
# [2] = target: Glc(a1-3)Glc(a1-3)Man(a1-2)Man(a1-2)Man(a1-3)[Man(a1-3)[Man(a1-6)]Man(a1-6)]Man(b1-4)GlcNAc
# Procedure, shortened: as §1
# [3] = target: Glc(a1-3)Man(a1-2)Man(a1-2)Man(a1-3)[Man(a1-2)Man(a1-3)[Man(a1-2)Man(a1-6)]Man(a1-6)]Man(b1-4)GlcNAc(b1-4)GlcNAc
# Procedure, shortened: as §1
# [4] = target: Glc(a1-4)Glc
# Procedure, shortened: as §1
# [5] = target: Glc(a1-4)Glc(a1-4)Glc
# Procedure, shortened: as §1
# [6] = target: Glc(a1-4)Glc(a1-4)Glc(a1-4)Glc
# Procedure, shortened: as §1
# [7] = target: Glc(a1-4)Glc(a1-4)Glc(a1-4)Glc(a1-4)Glc
# Procedure, shortened: as §1
# [8] = target: Glc(a1-4)Glc(a1-4)Glc(a1-4)Glc(a1-4)Glc(a1-4)Glc
# Procedure, shortened: as §1
# [9] = target: Glc(a1-4)Glc(a1-4)Glc(a1-4)Glc(a1-4)Glc(a1-4)Glc(a1-4)Glc
# Procedure, shortened: as §1
# [10] = target: Glc(a1-4)Glc(a1-4)Glc(a1-4)Glc(a1-4)Glc(a1-4)Glc(a1-4)Glc(a1-4)Glc
# Procedure, shortened: as §1
# [11] = target: Glc(a1-4)Glc(a1-4)Glc(a1-4)Glc(a1-4)Glc(a1-4)Glc(a1-4)Glc(a1-4)Glc(a1-4)Glc
# Procedure, shortened: as §1
# [12] = target: Glc(a1-4)Glc(a1-4)Glc(a1-4)Glc(a1-4)Glc(a1-4)Glc(a1-4)Glc(a1-4)Glc(a1-4)Glc(a1-4)Glc
# Procedure, shortened: as §1
# [13] = target: Glc(a1-4)Glc(a1-4)Glc(a1-4)Glc(a1-4)Glc(a1-4)Glc(a1-4)Glc(a1-4)Glc(a1-4)Glc(a1-4)Glc(a1-4)Glc
# Procedure, shortened: as §1
# [14] = target: Glc(a1-4)Glc(a1-4)Glc(a1-4)Glc(a1-4)Glc(a1-4)Glc(a1-4)Glc(a1-4)Glc(a1-4)Glc(a1-4)Glc(a1-4)Glc(a1-4)Glc
# Procedure, shortened: as §1
# [15] = target: Glc(a1-4)Glc(a1-4)Glc(a1-4)Glc(a1-4)Glc(a1-4)Glc(a1-4)Glc(a1-4)Glc(a1-4)Glc(a1-4)Glc(a1-4)Glc(a1-4)Glc(a1-4)Glc
# Procedure, shortened: as §1
# [16] = target: Glc(a1-6)Glc
# Procedure, shortened: as §1
# [17] = target: Glc(a1-6)Glc(a1-4)Glc(a1-4)Glc
# Procedure, shortened: as §1
# [18] = target: Glc(a1-6)Glc(a1-6)Glc
# Procedure, shortened: as §1
# [19] = target: Glc(a1-6)Glc(a1-6)Glc(a1-6)Glc
# Procedure, shortened: as §1
# [20] = target: Glc(a1-6)Glc(a1-6)Glc(a1-6)Glc(a1-6)Glc
# Procedure, shortened: as §1
# [21] = target: Glc(a1-6)Glc(a1-6)Glc(a1-6)Glc(a1-6)Glc(a1-6)Glc
# Procedure, shortened: as §1
# [22] = target: Glc(a1-6)Glc(a1-6)Glc(a1-6)Glc(a1-6)Glc(a1-6)Glc(a1-6)Glc
# Procedure, shortened: as §1
# [23] = target: Glc(a1-6)Glc(a1-6)Glc(a1-6)Glc(a1-6)Glc(a1-6)Glc(a1-6)Glc(a1-6)Glc
# Procedure, shortened: as §1
# [24] = target: Glc(a1-6)Glc(a1-6)Glc(a1-6)Glc(a1-6)Glc(a1-6)Glc(a1-6)Glc(a1-6)Glc(a1-6)Glc
# Procedure, shortened: as §1
# [25] = target: Glc(a1-6)Glc(a1-6)Glc(a1-6)Glc(a1-6)Glc(a1-6)Glc(a1-6)Glc(a1-6)Glc(a1-6)Glc(a1-6)Glc
# Procedure, shortened: as §1
# [26] = target: Glc(a1-6)Glc(a1-6)Glc(a1-6)Glc(a1-6)Glc(a1-6)Glc(a1-6)Glc(a1-6)Glc(a1-6)Glc(a1-6)Glc(a1-6)Glc
# Procedure, shortened: as §1
# [27] = target: Glc(a1-6)Glc(a1-6)Glc(a1-6)Glc(a1-6)Glc(a1-6)Glc(a1-6)Glc(a1-6)Glc(a1-6)Glc(a1-6)Glc(a1-6)Glc(a1-6)Glc
# Procedure, shortened: as §1
# [28] = target: Glc(a1-6)Glc(a1-6)Glc(a1-6)Glc(a1-6)Glc(a1-6)Glc(a1-6)Glc(a1-6)Glc(a1-6)Glc(a1-6)Glc(a1-6)Glc(a1-6)Glc(a1-6)Glc
# Procedure, shortened: as §1
# [29] = target: Glc(b1-2)Glc
# Procedure, shortened: as §1
# [30] = target: Glc(b1-3)Glc
# Procedure, shortened: as §1
# [31] = target: Glc(b1-3)Glc(b1-3)Glc
# Procedure, shortened: as §1
# [32] = target: Glc(b1-3)Glc(b1-3)Glc(b1-3)Glc
# Procedure, shortened: as §1
# [33] = target: Glc(b1-3)Glc(b1-3)Glc(b1-3)Glc(b1-3)Glc
# Procedure, shortened: as §1
# [34] = target: Glc(b1-3)Glc(b1-3)Glc(b1-3)Glc(b1-3)Glc(b1-3)Glc
# Procedure, shortened: as §1
# [35] = target: Glc(b1-3)Glc(b1-3)Glc(b1-3)Glc(b1-3)Glc(b1-3)Glc(b1-3)Glc
# Procedure, shortened: as §1
# [36] = target: Glc(b1-3)Glc(b1-3)Glc(b1-3)Glc(b1-3)Glc(b1-3)Glc(b1-3)Glc(b1-3)Glc
# Procedure, shortened: as §1
# [37] = target: Glc(b1-3)Glc(b1-3)Glc(b1-3)Glc(b1-3)Glc(b1-3)Glc(b1-3)Glc(b1-3)Glc(b1-3)Glc
# Procedure, shortened: as §1
# [38] = target: Glc(b1-3)Glc(b1-3)Glc(b1-3)Glc(b1-3)Glc(b1-3)Glc(b1-3)Glc(b1-3)Glc(b1-3)Glc(b1-3)Glc
# Procedure, shortened: as §1
# [39] = target: Glc(b1-3)Glc(b1-3)Glc(b1-3)Glc(b1-3)Glc(b1-3)Glc(b1-3)Glc(b1-3)Glc(b1-3)Glc(b1-3)Glc(b1-3)Glc
# Procedure, shortened: as §1
# [40] = target: Glc(b1-3)Glc(b1-3)Glc(b1-3)Glc(b1-3)Glc(b1-3)Glc(b1-3)Glc(b1-3)Glc(b1-3)Glc(b1-3)Glc(b1-3)Glc(b1-3)Glc
# Procedure, shortened: as §1
# [41] = target: Glc(b1-3)Glc(b1-3)Glc(b1-3)Glc(b1-3)Glc(b1-3)Glc(b1-3)Glc(b1-3)Glc(b1-3)Glc(b1-3)Glc(b1-3)Glc(b1-3)Glc(b1-3)Glc
# Procedure, shortened: as §1
# [42] = target: Glc(b1-4)Glc
# Procedure, shortened: as §1
# [43] = target: Glc(b1-4)Glc(b1-4)Glc
# Procedure, shortened: as §1
# [44] = target: Glc(b1-4)Glc(b1-4)Glc(b1-4)Glc
# Procedure, shortened: as §1
# [45] = target: Glc(b1-4)Glc(b1-4)Glc(b1-4)Glc(b1-4)Glc
# Procedure, shortened: as §1
binder,measurement,setting,value
"ZG16p (Homo sapiens), O60844 (protein) ARSSSYSGEYGGGGGKRFSHSGNQLDGPITALRVRVNTYYIVGLQVRYGKVWSDYVGGRNGDLEEIFLHPGESVIQVSGKYKWYLKKLLFVTDKGRYLSFGKDSGTSFNAVPLHPNTVLRFISGRSGSLIDAIGLHWDVYPSSCSRC",glycan array binding signal (z-score),[1],0.445
same,glycan array binding signal (z-score),[2],0.643
same,glycan array binding signal (z-score),[3],-0.195
same,glycan array binding signal (z-score),[4],0.71
same,glycan array binding signal (z-score),[5],0.576
same,glycan array binding signal (z-score),[6],0.465
same,glycan array binding signal (z-score),[7],0.64
same,glycan array binding signal (z-score),[8],1.47
same,glycan array binding signal (z-score),[9],1.55
same,glycan array binding signal (z-score),[10],1.93
same,glycan array binding signal (z-score),[11],1.78
same,glycan array binding signal (z-score),[12],1.95
same,glycan array binding signal (z-score),[13],0.999
same,glycan array binding signal (z-score),[14],4.4
same,glycan array binding signal (z-score),[15],2.82
same,glycan array binding signal (z-score),[16],1.29
same,glycan array binding signal (z-score),[17],-0.027
same,glycan array binding signal (z-score),[18],0.475
same,glycan array binding signal (z-score),[19],0.435
same,glycan array binding signal (z-score),[20],0.189
same,glycan array binding signal (z-score),[21],-0.061
same,glycan array binding signal (z-score),[22],-0.184
same,glycan array binding signal (z-score),[23],-0.142
same,glycan array binding signal (z-score),[24],-0.055
same,glycan array binding signal (z-score),[25],0.078
same,glycan array binding signal (z-score),[26],0.337
same,glycan array binding signal (z-score),[27],-0.065
same,glycan array binding signal (z-score),[28],-0.118
same,glycan array binding signal (z-score),[29],-0.052
same,glycan array binding signal (z-score),[30],0.748
same,glycan array binding signal (z-score),[31],0.455
same,glycan array binding signal (z-score),[32],0.797
same,glycan array binding signal (z-score),[33],0.602
same,glycan array binding signal (z-score),[34],1.25
same,glycan array binding signal (z-score),[35],-0.027
same,glycan array binding signal (z-score),[36],0.02
same,glycan array binding signal (z-score),[37],0.089
same,glycan array binding signal (z-score),[38],-0.076
same,glycan array binding signal (z-score),[39],0.028
same,glycan array binding signal (z-score),[40],0.262
same,glycan array binding signal (z-score),[41],-0.12
same,glycan array binding signal (z-score),[42],0.043
same,glycan array binding signal (z-score),[43],-0.054
same,glycan array binding signal (z-score),[44],-0.149
same,glycan array binding signal (z-score),[45],-0.328
